# According to the supplement of paper PMC8728848:
# Some of the results follow.
# B1: Gal-9-hFc (Mus musculus), O08573-2 (protein)
# chain: MALFSAQSPYINPIIPFTGPIQGGLQEGLQVTLQGTTKSFAQRFVVNFQNSFNGNDIAFHFNPRFEEGGYVVCNTKQNGQWGPEERKMQMPFQKGMPFELCFLVQRSEFKVMVNKKFFVQYQHRVPYHLVDTIAVSGCLKLSFITFQTQNFRPAHQAPMAQTTIHMVHSTPGQMFSTPGIPPVVYPTPAYTIPFYTPIPNGLYPSKSIMISGNVLPDATRFHINLRCGGDIAFHLNPRFNENAVVRNTQINNSWGQEERSLLGRMPFSRGQSFSVWIICEGHCFKVAVNGQHMCEYYHRLKNLQDINTLEVAGDIQLTHVQT
# Tests used:
# Test in all cases: glycan array binding signal (z-score within array); higher = stronger binding
# Conditions in all cases: glycan notation: IUPAC condensed, linker removed
# [1] = biological target: Neu5Ac(a2-6)GlcNAc(b1-4)GlcNAc(b1-4)GlcNAc
# Method in brief: (§1)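 Glycan array data were curated from 3228 arrays in the Consortium for Functional Glycomics database and kept only where the protein sequence was available. Glycan names were converted to IUPAC-condensed notation, and columns mapping to the same glycan were averaged. The binding signal is a within-array Z-score, averaged across arrays of the same protein sequence at different concentrations or buffers and across linkers. Negative Z-scores can be read as non-binding.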
# Neu5Ac(a2-8)Neu5Ac = biological target: Neu5Ac(a2-8)Neu5Ac
# Method in brief: as §1
# [2] = biological target: Neu5Ac(a2-8)Neu5Ac(a2-3)Gal(b1-3)GalNAc(b1-4)[Neu5Ac(a2-3)]Gal(b1-4)Glc
# Method in brief: as §1
# [3] = biological target: Neu5Ac(a2-8)Neu5Ac(a2-3)Gal(b1-3)GalNAc(b1-4)[Neu5Ac(a2-8)Neu5Ac(a2-3)]Gal(b1-4)Glc
# Method in brief: as §1
# [4] = biological target: Neu5Ac(a2-8)Neu5Ac(a2-3)Gal(b1-4)Glc
# Method in brief: as §1
# [5] = biological target: Neu5Ac(a2-8)Neu5Ac(a2-3)Gal(b1-4)GlcNAc
# Method in brief: as §1
# [6] = biological target: Neu5Ac(a2-8)Neu5Ac(a2-3)[Gal(b1-3)GalNAc(b1-4)]Gal(b1-4)Glc
# Method in brief: as §1
# [7] = biological target: Neu5Ac(a2-8)Neu5Ac(a2-3)[GalNAc(b1-4)]Gal(b1-4)Glc
# Method in brief: as §1
# [8] = biological target: Neu5Ac(a2-8)Neu5Ac(a2-8)Neu5Ac
# Method in brief: as §1
# [9] = biological target: Neu5Ac(a2-8)Neu5Ac(a2-8)Neu5Ac(a2-3)Gal(b1-4)Glc
# Method in brief: as §1
# [10] = biological target: Neu5Ac(a2-8)Neu5Ac(a2-8)Neu5Ac(a2-3)[Gal(b1-3)GalNAc(b1-4)]Gal(b1-4)Glc
# Method in brief: as §1
# [11] = biological target: Neu5Ac(a2-8)Neu5Ac(a2-8)Neu5Ac(a2-3)[GalNAc(b1-4)]Gal(b1-4)Glc
# Method in brief: as §1
# [12] = biological target: Neu5Ac(a2-8)Neu5Ac(a2-8)Neu5Ac(a2-8)Neu5Ac(a2-3)[GalNAc(b1-4)]Gal(b1-4)Glc
# Method in brief: as §1
# [13] = biological target: Neu5Ac(a2-8)Neu5Gc(a2-3)Gal(b1-4)GlcNAc
# Method in brief: as §1
# [14] = biological target: Neu5Ac(b2-6)Gal(b1-4)GlcNAc
# Method in brief: as §1
# Neu5Ac(b2-6)GalNAc = biological target: Neu5Ac(b2-6)GalNAc
# Method in brief: as §1
# [15] = biological target: Neu5Ac9Ac(a2-3)Gal(b1-3)GlcNAc
# Method in brief: as §1
# [16] = biological target: Neu5Ac9Ac(a2-3)Gal(b1-4)GlcNAc
# Method in brief: as §1
# [17] = biological target: Neu5Ac9Ac(a2-6)Gal(b1-4)GlcNAc
# Method in brief: as §1
# [18] = biological target: Neu5Gc(a2-3)Gal(b1-3)GlcNAc
# Method in brief: as §1
# [19] = biological target: Neu5Gc(a2-3)Gal(b1-3)[Fuc(a1-4)]GlcNAc
# Method in brief: as §1
# Neu5Gc(a2-3)Gal(b1-4)Glc = biological target: Neu5Gc(a2-3)Gal(b1-4)Glc
# Method in brief: as §1
# [20] = biological target: Neu5Gc(a2-3)Gal(b1-4)GlcNAc
# Method in brief: as §1
# [21] = biological target: Neu5Gc(a2-3)Gal(b1-4)GlcNAc(b1-3)Gal(b1-4)GlcNAc(b1-2)Man(a1-3)[Neu5Gc(a2-3)Gal(b1-4)GlcNAc(b1-3)Gal(b1-4)GlcNAc(b1-2)Man(a1-6)]Man(b1-4)GlcNAc(b1-4)GlcNAc
# Method in brief: as §1
# [22] = biological target: Neu5Gc(a2-3)Gal(b1-4)[Fuc(a1-3)]GlcNAc
# Method in brief: as §1
# [23] = biological target: Neu5Gc(a2-6)Gal(b1-4)GlcNAc
# Method in brief: as §1
# Neu5Gc(a2-6)GalNAc = biological target: Neu5Gc(a2-6)GalNAc
# Method in brief: as §1
# [24] = biological target: Neu5Gc(a2-8)Neu5Ac(a2-3)Gal(b1-4)GlcNAc
# Method in brief: as §1
# [25] = biological target: Neu5Gc(a2-8)Neu5Gc(a2-3)Gal(b1-4)GlcNAc
# Method in brief: as §1
# [26] = biological target: Neu5Gc(a2-8)Neu5Gc(a2-3)Gal(b1-4)GlcNAc(b1-3)Gal(b1-4)GlcNAc
# Method in brief: as §1
# [27] = biological target: Neu5Gc(a2-8)Neu5Gc(a2-6)Gal(b1-4)GlcNAc
# Method in brief: as §1
# [28] = biological target: Neu5Gc(b2-6)Gal(b1-4)GlcNAc
# Method in brief: as §1
binder,measurement,setting,value
B1,glycan array binding signal (z-score),[1],0.481
same,glycan array binding signal (z-score),Neu5Ac(a2-8)Neu5Ac,-0.108
same,glycan array binding signal (z-score),[2],-0.279
same,glycan array binding signal (z-score),[3],-0.297
same,glycan array binding signal (z-score),[4],-0.553
same,glycan array binding signal (z-score),[5],-0.494
same,glycan array binding signal (z-score),[6],-0.205
same,glycan array binding signal (z-score),[7],-0.089
same,glycan array binding signal (z-score),[8],2.03
same,glycan array binding signal (z-score),[9],-0.08
same,glycan array binding signal (z-score),[10],-0.323
same,glycan array binding signal (z-score),[11],-0.076
same,glycan array binding signal (z-score),[12],-0.366
same,glycan array binding signal (z-score),[13],-0.49
same,glycan array binding signal (z-score),[14],-0.344
same,glycan array binding signal (z-score),Neu5Ac(b2-6)GalNAc,-0.655
same,glycan array binding signal (z-score),[15],-0.299
same,glycan array binding signal (z-score),[16],-0.435
same,glycan array binding signal (z-score),[17],-0.538
same,glycan array binding signal (z-score),[18],-0.398
same,glycan array binding signal (z-score),[19],-0.331
same,glycan array binding signal (z-score),Neu5Gc(a2-3)Gal(b1-4)Glc,0.367
same,glycan array binding signal (z-score),[20],-0.414
same,glycan array binding signal (z-score),[21],-0.365
same,glycan array binding signal (z-score),[22],-0.358
same,glycan array binding signal (z-score),[23],-0.271
same,glycan array binding signal (z-score),Neu5Gc(a2-6)GalNAc,-0.208
same,glycan array binding signal (z-score),[24],-0.447
same,glycan array binding signal (z-score),[25],-0.504
same,glycan array binding signal (z-score),[26],-0.401
same,glycan array binding signal (z-score),[27],-0.482
same,glycan array binding signal (z-score),[28],-0.236
